The whole screen tested about 340,000 compounds, of which about 12,000 (3.5%) were called active. Inconclusive means that the source gave no clear call. Such entries were picked first, then a sample of the others. The call rests on the fitted dose curve; in most records, active means well fitted inhibition curve with a large enough effect; inconclusive means small, poorly fitted or top-dose-only effect, or another doubt; inactive means no such curve, though single readings can be large or run the other way. Potencies of inconclusive entries are left out as doubtful fits.
Assay: qHTS Assay for Inhibitors of Hepatitis C Virus (HCV)
Conditions: Huh7.5.1 HCVcc-Cre (HCVcc is cell-culture hepatitis C virus) infection, luciferase reporter, 44 h; series mostly up to 41.8 µM
In short: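 Luciferase read-out (15 sec integration) after a 15 min room-temperature substrate step quantifies HCVcc-Cre infection. Cells, 1,000 per well, had compound added 4 h post-plating, then virus at ~0.5 moi, and were cultured 44 h.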
Potency means the concentration at half of the fitted maximal effect; tags describe the fitted curve by direction and shape.

Compound	Potency
COc1ccc(-c2nc(=S)c3c([nH]2)Oc2ccc(C)cc2C3)cc1O	inactive
Cc1ccc(S(=O)(=O)N(C)C)cc1NC(=S)NC12CC3CC(CC(C3)C1)C2	inconclusive [inhibitor, single point]
CC(C)COc1cccc(C(=O)Nc2ccc(CN3CCOCC3)cc2)c1	active: 3.16 µM
c1ccc(COC(CN2CCCCCC2)CN2CCCCCC2)cc1	active: 10 µM
COc1ccccc1NC(=O)COc1ccc(Br)cc1CNC1CCCC1	inconclusive [inhibitor, single point]
COc1ccc(OCC(O)CN(CCO)CC(O)Cn2ccc3ccccc32)cc1 (stereo unspecified)	inconclusive [inhibitor, full curve, poor fit]
COc1ccc(S(=O)(=O)N2CC(O)CC2C(=O)OCC(=O)Nc2ccc(Cl)cn2)cc1 (stereo unspecified)	inactive
Cc1ccc(-c2csc(C(C#N)=C(O)CN3CCN(C(=O)c4ccco4)CC3)n2)cc1	inactive
Cc1ccc(/C=N/NC(=O)c2nnn(-c3nonc3N)c2-c2ccc3c(c2)OCO3)s1	inactive
O=C(Nc1ccccc1)Nc1cccc2ccccc12	inconclusive [inhibitor, single point]
N#Cc1c(C(F)(F)F)cc(-c2ccco2)nc1SCc1ccccn1	inconclusive [inhibitor, partial curve, poor fit]
CN(CC(=O)Nc1ccc(Cl)c(C(F)(F)F)c1)C(=O)c1cccs1	inconclusive [inhibitor, single point]
CCOC(=O)CCCSc1nnc(CCCCCN2C(=O)c3cccc4cccc(c34)C2=O)o1	inactive
CC1=NN(c2ccccc2)C(=O)C1N=Nc1cccc(O)c1 (stereo unspecified)	inconclusive [inhibitor, single point]
Cc1nnc(NC(=O)c2cc3ccccc3o2)s1	inactive
Cc1ccsc1/C=N/Nc1ncnc2nc[nH]c12	inactive
COc1ccc(-c2cc(C(=O)N/N=C/c3cc(OC)c(OC)cc3OC)c3ccccc3n2)cc1	inconclusive [inhibitor, full curve, poor fit]
Cc1cccnc1NC(=O)c1cccc(S(=O)(=O)N2CCN(c3ccc(F)cc3)CC2)c1	inconclusive [inhibitor, partial curve]
COC(=O)c1c(C)[nH]c(C(=O)OCC(=O)NCC(C)C)c1C	inconclusive [inhibitor, single point]
COc1ccc(NC(=O)Cc2ccc(C)c(C)c2)cc1S(=O)(=O)N1CCCCC1	inconclusive [inhibitor, full curve]
CC(C)CC(C(=O)NC1CCCCC1)N(Cc1cccs1)C(=O)c1snc(C(N)=O)c1N (stereo unspecified)	active: 12.6 µM
COc1cc(CNCc2cccs2)ccc1OCC(=O)NC(C)(C)C	inconclusive [inhibitor, partial curve]
CCn1c(SCC(=O)N(C)CCC#N)nc2cc(S(=O)(=O)N3CCOCC3)ccc21	inconclusive [inhibitor, single point]

Compound	Potency
O=C(CN1C(=O)/C(=C/c2cccc(Br)c2)SC1=S)N1CCCC1	inconclusive [inhibitor, single point]
CCCCCSc1nc(C)c(CC(=O)O)c(=O)[nH]1	inactive
O=C(Nc1ccc2nc(-c3cccs3)c(-c3cccs3)nc2c1)NC1CC1	active: 25.1 µM
Cc1ccc(S(=O)(=O)c2nc(-c3ccccc3Cl)oc2NCCCN2CCOCC2)cc1	inconclusive [inhibitor, single point]
Cc1cc(C)c(NC(=O)c2sc3nc4c(cc3c2N)C(=O)CC(C)(C)C4)c(C)c1	inconclusive [inhibitor, single point]
Cc1cc(C)c2c(c1)/C(=C/C(=O)c1ccc(Br)s1)C(=O)N2	active: 11.2 µM
Cc1cc(NC(=O)CSCC(=O)Nc2nc3c(C)cccc3s2)no1	inconclusive [inhibitor, single point]
O=C1CN(S(=O)(=O)c2ccc(F)cc2)CCN1	inactive
COc1ccccc1CNCC(O)(c1ccc(F)cc1)c1ccc(F)cc1	inconclusive [inhibitor, single point]
Cc1nc2c(cnn2-c2ccccc2)c(=O)n1/N=C/c1ccccc1	inconclusive [inhibitor, single point]
O=C(OCCN1CCOCC1)c1ccc(OCCN2CCOCC2)cc1	inactive
COc1ccc(S(=O)(=O)N2CCCCCC2)cc1NC(=O)CCCOc1ccccc1	active: 12.6 µM
CCOC(=O)C(=NCC1CCCO1)NNc1cc(Cl)ccc1Cl (stereo unspecified)	inconclusive [inhibitor, partial curve]
Cc1ccc(-n2nnc3c(=O)n(CC(=O)N4CCOCC4)cnc32)cc1	inactive
CC1(C)Cc2c(cnn2-c2cccc(F)c2)C(NC(=O)c2ccc(=O)[nH]n2)C1 (stereo unspecified)	inconclusive [inhibitor, single point]
O=C(Nc1ccc(Cl)cc1)c1ccc(-n2cccn2)c([N+](=O)[O-])c1	inconclusive [inhibitor, partial curve]
Brc1ccc(-c2ccc(/C=N/Nc3nncc(-c4ccccc4)n3)o2)cc1	inactive
CCCC1(C(=O)OC)NC(c2ccc(OC)cc2OC)C2C(=O)N(c3cccc(C(C)=O)c3)C(=O)C21 (stereo unspecified)	inconclusive [inhibitor, partial curve]
O=C(NCc1ccc(F)cc1)c1cc(S(=O)(=O)N2CCCCC2)ccc1Cl	inactive
COc1ccccc1N1CCN(C(=O)CSc2ncnc3scc(-c4ccccc4)c23)CC1	inconclusive [inhibitor, partial curve]
CCOc1ccc(-c2cc(C(=O)Nc3ccc4c(c3)OCCO4)c3ccccc3n2)cc1	inconclusive [inhibitor, single point]
CN1C(=O)c2cccc(NCCCN3C(=O)c4ccccc4C3=O)c2C1=O	inactive
Cc1ccc(NC(=O)CSc2nnc(-c3n[nH]c4ccccc34)n2-c2ccccc2)c(C)c1	inconclusive [inhibitor, partial curve]

From PubChem BioAssay AID651820 (National Center for Advancing Translational Sciences (NCATS), 2012)
